The whole screen tested about 4,800 compounds, of which about 410 (8.5%) showed an effect of 50% or more. Some of the results follow.

This experiment has as its system Plasmodium falciparum. The experiment is described as follows: Confirmatory screen in NF54 pLDH assay, in single point, at 2uM, 72h. It is filed as functional, Erythrocyte. To be noted: timepoint 72 hour.
Usually % Inhibition stands for the relative decrease from the control value, in per cent. Turning to `Fc1ccc(N2CC[C@H](CN3CCC(c4c[nH]c5ccccc45)(c4c[nH]c5ccccc45)CC3)C2)cc1`, the “% Inhibition” value was found to be 102%. The value for `O[C@@H](CNCc1ccc2c(c1)CCO2)c1ccc(F)c(F)c1` was 74%; that for `CCN(C(C)=O)c1nc(CN2CC=C(c3c[nH]c4cc(F)ccc34)CC2)cs1` was 20%. The value for `Cc1ccc(CNc2ncnc(N)c2Cl)c(N2CCCC2)n1` was 8%; that for `CN1CCC(N(C)c2ccccc2CNC[C@@H](O)c2cccc(Cl)c2)CC1` was 17%. The result for `CC(C)(C)c1ccc(CNC[C@H](O)c2ccc(F)cc2F)cc1` reads 91%; that for `COc1ccc(CCNCc2ccc3[nH]cnc3c2)c(Cl)c1`, 48%; that for `Oc1ccc(C2=CCN(Cc3cccc4[nH]ccc34)CC2)cc1`, 38%.

With `CCCOc1cncc(-c2ccc3c(c2)CNCC3)c1`, the “% Inhibition” value worked out at 8%.

For `CN1C2CCC1CC(OC(=O)C1CCC(C(=O)OC3CC4CCC(C3)N4C)(c3ccccc3)c3ccccc31)C2` (configuration not stated), the “% Inhibition” value was determined as 63%.

`CN(C)CC12CNCC1CN(c1ccnc3cc(Cl)ccc13)C2` (configuration not stated): the “% Inhibition” value turned out to be 97%. Turning to `CN1CCN(c2ccc(C(F)(F)F)cc2NCc2cnc[nH]2)CC1`, the “% Inhibition” value stood at 92%.

For the origin of these results see ChEMBL document CHEMBL5308541, “MAIP: An Open-Source Tool to Enrich High-Throughput Screening Output and Identify Novel, Druglike Molecules with Antimalarial Activity” (ACS Med Chem Lett, 2023).
